Results published in publication PMC10726135.
This is one part of the list. At the low end of the ranking, values are background and their order means little. Measured with an extract: partners may take part in the binding.

target: T1, HNF4alpha2 (COS-7 nuclear extract) (UniProt P41235); assay: protein-binding microarray; conditions: COS-7 nuclear extract on double-stranded Agilent 4x180k PBM; binding buffer, salt, pH and temperature not given; high values mean tight binding; double strand, one strand shown; sequences stand for … in …GCCTAGGGAGATTAGAGTATCGGTCGA
T1 sequence: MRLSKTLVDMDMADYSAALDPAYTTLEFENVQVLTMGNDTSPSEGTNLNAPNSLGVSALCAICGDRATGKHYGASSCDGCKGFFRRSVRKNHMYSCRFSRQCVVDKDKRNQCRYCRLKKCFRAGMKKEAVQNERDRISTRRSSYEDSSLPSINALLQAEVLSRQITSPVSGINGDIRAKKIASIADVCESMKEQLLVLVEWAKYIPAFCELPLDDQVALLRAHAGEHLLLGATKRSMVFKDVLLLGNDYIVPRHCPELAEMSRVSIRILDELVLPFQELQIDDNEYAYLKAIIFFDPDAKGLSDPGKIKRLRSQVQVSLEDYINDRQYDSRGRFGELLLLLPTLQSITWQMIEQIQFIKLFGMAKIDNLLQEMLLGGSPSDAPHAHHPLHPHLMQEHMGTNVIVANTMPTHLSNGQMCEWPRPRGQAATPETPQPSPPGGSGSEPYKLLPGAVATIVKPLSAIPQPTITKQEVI

Sequence | binding signal (log2 normalized intensity)
GTATAACCTGGAACTGAAAGAGACCTTTGA | 5.31
CACCTACATTCAGGACACTTCTGAAAAAAA | -1.08
GGAGTTGCTTGTGTTGGAGCATTAGTTGAC | 1.22
TAGGCATTGAGGCAGCCAGCGCAGGGGCTT | -1.15
CAACCAGAGGTCACTTTTATCACCATCTTG | 0.215
CCCAAGGGATAGGCAGGAGTTAACTAACAA | -1.12
GGAAGACAGTCTTGGGCACAAAGTACAAAA | 2.18
CTGGGGGCTGGGCGCGGGATCCTCTTTCCT | -0.94
TAAGAAAGGCTACAAAGGTGACTTGCCCAG | -0.598
CAGACTAAACTCACAATGGGGCATGACTTG | -0.203
CTGACAGACTGCCATTCCAGAAGTAGGATG | -1.14
TTGCACAGTATTTGGTGAGGCCCCAGTGTC | 1.59
GGGCCGGCTCAGGAGAAGGGCCCATGGGCT | -1.19
TCTGCTTAAAGGCAAAGTCCAGAACCTGGA | 3.15
CCTGAAGGCTGAGCCTAGGAGTTCAATGCT | -1.14
CATTCTTATCACAGAGCATCTGGTGGAACT | 1.08
ATAACACACAGGCTCAACGGGTTAGACGCA | -1.13
GACAGGCTAATGAGATAATGCTGGTAAAGC | -0.891
CCAGGGGAAACTCCATTTCCTTCTAGCTCC | -1.06
CCAAACCAGTTCAACAAGAATTCCCCACTC | -0.326
ATCAGCAATGAACAAAGGTCGGTGGTATGT | 2.74
TAACCATTCTTTCTGAGAAAAGCTGATGAC | -0.831
TCCCAGAGCATACATGCAGCTGAGAAAGAG | -1.19
AAACTCAGAGTCAAATCCCCTAGGTGATTA | -0.81

Sequence | binding signal (log2 normalized intensity)
GAGCAAGAAACAGCAAATGCTTTTATTACC | -1.21
TAAAACAAACTCATTTTGATCTTTGTGTAC | 2.61
AGGGGTGGGGACCTTTGGGCTCTGACCCGA | 2.46
AGTATCTATAGTTATTGCATGCAAGAGTTC | 1.34
AGGAATTCTGATCTTTGACCTCTCCAGGGT | 5.99
ACATTTAACTTAACCACTCAATCAGTACTG | -0.895
CAGGGCACATGTACACAGGAATATCAACAG | -1.06
ACAGCATTAGAGCAACCAGAATGTTCAAAA | -1.06
CAAAGGACAGGCTGACTATCACTGGGAGAT | -0.988
TAGGCTATCAGACAGCCACACTTTAATGTG | -1.09
AGCTAGTGCTAAAGGTCATATCCAAAATAT | 3.97
GGAGACTTCAAACGGGAAGCGAGGCCTCAT | -1.16
GATCCTTATCAGTGTGAGCTACAAGTGAAT | -0.0021
GATCTTTGTTAGACCCTTATCAGTAGTTCT | 1.47
TGTAACTAACAACTGACCTTGCAGGCCAGG | -0.838
CTGAGAGATTTTTTCTTCCACCTCCCTCCA | 2.16
GGCTTGTGTTTAACCTTTGGGTGTGTTCAG | 2.96
GGCCCTGCAGGGCCCCACATTTCAGGAATG | 0.881
GAGCTGAGGAATTTCACCCAGGTATGACAA | -1.18
CCAGATAAACAGAAGAAAGGGGCTAGGGCA | -1.24
TATGCATTTGTCTCAGGTGGGCAGAGGCCT | -0.0135
CCTAACTATGGTTGATAAGGAAGTCCATGA | 0.878
AAAGGTCAGGGATAGAACTGGTCCTGTGGG | -0.0244
